Results from the supplement of paper PMC12217912.
Some of the results follow. The full chains were built here from the parent and the listed change. Inactive controls read about 0.05.

B1: TEV protease; numbered along this chain (parent)
chain: MGESLFKGPRDYNPISSSICHLTNESDGHTTSLYGIGFGPFIITNKHLFRRNNGTLVVQSLHGVFKVKDTTTLQQHLVDGRDMIIIRMPKDFPPFPQKLKFREPQREERICLVTTNFQTKSMSSMVSDTSCTFPSGDGIFWKHWIQTKDGQCGSPLVSTRDGFIVGIHSASNFTNTNNYFTSVPKNFMELLTNQEAQQWVSGWRLNADSVLWGGHKVFMVKPEEPFQPVKEATQL
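Further: Bxb1 expression induced with 0.2% (w/v) L-rhamnose at OD600 near 0.5, cultures sampled hourly, flipped fraction per protease–substrate barcode pair counted by paired-end Illumina sequencing.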

Variants of: B1
Test: raw area under fraction-flipped curve 0-4 h after induction (AUC4h, not background-subtracted), DNA-recorder readout of cleavage of the substrate (dimensionless); higher = more cleavage of the substrate by the protease variant
Conditions: temperature: 34 °C; time window: 0-4 h after rhamnose induction
In the case of S135H, the “area with substrate ENLDFQS” value is reported as 0.0712, the “area with substrate ENLFFQS” value is reported as 0.0579 and the “area with substrate ENLHFQS” value is reported as 0.0801. The “area with substrate ENLKFQS” value was 0.0649, the “area with substrate ENLNFQS” value was 0.0645 and the “area with substrate ENLWFQS” value was 0.108.
With G153M the “area with substrate ENLDFQS” value was 0.0544, the “area with substrate ENLEFQS” value was 0.0468 and the “area with substrate ENLHFQS” value was 0.0522. For the same variant, the “area with substrate ENLKFQS” value was 0.0519, the “area with substrate ENLLFQS” value was 0.0299 and the “area with substrate ENLNFQS” value was 0.0295. For the same variant, the “area with substrate ENLRFQS” value was 0.0848 and the “area with substrate ENLWFQS” value was 0.0543.
For V165I, the “area with substrate ENLDFQS” value was 0.0399, the “area with substrate ENLEFQS” value was 0.0639 and the “area with substrate ENLKFQS” value was 0.0847. For the same variant, the “area with substrate ENLMFQS” value was 0.077, the “area with substrate ENLQFQS” value was 0.08 and the “area with substrate ENLTFQS” value was 0.0573. For the same variant, the “area with substrate ENLWFQS” value was 0.0736.
In the case of H215F, the “area with substrate ENLDFQS” value is reported as 0.0811, the “area with substrate ENLEFQS” value is reported as 0.0671 and the “area with substrate ENLFFQS” value is reported as 0.071. For the same variant, the “area with substrate ENLHFQS” value was 0.069, the “area with substrate ENLIFQS” value was 0.0969 and the “area with substrate ENLKFQS” value was 0.0549. For the same variant, the “area with substrate ENLQFQS” value was 0.06, the “area with substrate ENLSFQS” value was 0.0528 and the “area with substrate ENLWFQS” value was 0.0662.
In the case of H215I, the “area with substrate ENLDFQS” value is reported as 0.0863 and the “area with substrate ENLKFQS” value is reported as 0.0578.
For R109T, the “area with substrate ENLDFQS” value was 0.0544, the “area with substrate ENLEFQS” value was 0.0626 and the “area with substrate ENLFFQS” value was 0.0871. For the same variant, the “area with substrate ENLGFQS” value was 0.0689, the “area with substrate ENLHFQS” value was 0.0714 and the “area with substrate ENLKFQS” value was 0.0765. The “area with substrate ENLLFQS” value was 0.0718, the “area with substrate ENLNFQS” value was 0.0574 and the “area with substrate ENLQFQS” value was 0.0653. For the same variant, the “area with substrate ENLRFQS” value was 0.07, the “area with substrate ENLSFQS” value was 0.0578 and the “area with substrate ENLWFQS” value was 0.0724.
With F92K the “area with substrate ENLDFQS” value was 0.0524, the “area with substrate ENLFFQS” value was 0.0842 and the “area with substrate ENLHFQS” value was 0.0576. The “area with substrate ENLKFQS” value was 0.066, the “area with substrate ENLQFQS” value was 0.0351 and the “area with substrate ENLWFQS” value was 0.0687.
In the case of R87D, the “area with substrate ENLDFQS” value is reported as 0.0449, the “area with substrate ENLFFQS” value is reported as 0.111 and the “area with substrate ENLGFQS” value is reported as 0.0598. For the same variant, the “area with substrate ENLKFQS” value was 0.0456 and the “area with substrate ENLWFQS” value was 0.0458.
With R87N the “area with substrate ENLDFQS” value was 0.0526, the “area with substrate ENLFFQS” value was 0.0732 and the “area with substrate ENLKFQS” value was 0.0949. The “area with substrate ENLSFQS” value was 0.0442.
In the case of G202W, the “area with substrate ENLDFQS” value is reported as 0.0609, the “area with substrate ENLEFQS” value is reported as 0.0551 and the “area with substrate ENLLFQS” value is reported as 0.0636. For the same variant, the “area with substrate ENLNFQS” value was 0.0606, the “area with substrate ENLPFQS” value was 0.0709 and the “area with substrate ENLQFQS” value was 0.0633. The “area with substrate ENLRFQS” value was 0.0582, the “area with substrate ENLSFQS” value was 0.0547 and the “area with substrate ENLVFQS” value was 0.0622.
For L211N, the “area with substrate ENLDFQS” value was 0.0705, the “area with substrate ENLEFQS” value was 0.14 and the “area with substrate ENLFFQS” value was 0.102. The “area with substrate ENLNFQS” value was 0.0728 and the “area with substrate ENLVFQS” value was 0.0847.
For F95L, the “area with substrate ENLDFQS” value was 0.0541, the “area with substrate ENLFFQS” value was 0.0929 and the “area with substrate ENLKFQS” value was 0.0744. The “area with substrate ENLLFQS” value was 0.0475 and the “area with substrate ENLWFQS” value was 0.078.
In the case of V58G, the “area with substrate ENLDFQS” value is reported as 0.0499, the “area with substrate ENLFFQS” value is reported as 0.0632 and the “area with substrate ENLHFQS” value is reported as 0.0474. For the same variant, the “area with substrate ENLKFQS” value was 0.0524, the “area with substrate ENLRFQS” value was 0.0611 and the “area with substrate ENLTFQS” value was 0.0473.
With V58L the “area with substrate ENLDFQS” value was 0.0547, the “area with substrate ENLEFQS” value was 0.0635 and the “area with substrate ENLFFQS” value was 0.0696. For the same variant, the “area with substrate ENLGFQS” value was 0.0794, the “area with substrate ENLHFQS” value was 0.0628 and the “area with substrate ENLIFQS” value was 0.0551. The “area with substrate ENLLFQS” value was 0.0417, the “area with substrate ENLPFQS” value was 0.076 and the “area with substrate ENLSFQS” value was 0.0779. The “area with substrate ENLWFQS” value was 0.106.
For E3D, the “area with substrate ENLDFQS” value was 0.0747, the “area with substrate ENLHFQS” value was 0.079 and the “area with substrate ENLMFQS” value was 0.106. The “area with substrate ENLNFQS” value was 0.0723, the “area with substrate ENLPFQS” value was 0.0492 and the “area with substrate ENLWFQS” value was 0.0709.
With N206R the “area with substrate ENLDFQS” value was 0.0762, the “area with substrate ENLEFQS” value was 0.0632 and the “area with substrate ENLFFQS” value was 0.0665. The “area with substrate ENLHFQS” value was 0.0543, the “area with substrate ENLIFQS” value was 0.0592 and the “area with substrate ENLKFQS” value was 0.0726. For the same variant, the “area with substrate ENLLFQS” value was 0.0627, the “area with substrate ENLNFQS” value was 0.0803 and the “area with substrate ENLRFQS” value was 0.0798. The “area with substrate ENLSFQS” value was 0.0666 and the “area with substrate ENLWFQS” value was 0.0642.
With D91T the “area with substrate ENLDFQS” value was 0.0954, the “area with substrate ENLEFQS” value was 0.0792 and the “area with substrate ENLFFQS” value was 0.112. For the same variant, the “area with substrate ENLIFQS” value was 0.0733, the “area with substrate ENLKFQS” value was 0.0805 and the “area with substrate ENLNFQS” value was 0.0635. The “area with substrate ENLRFQS” value was 0.092, the “area with substrate ENLSFQS” value was 0.0397 and the “area with substrate ENLWFQS” value was 0.0592.
For F140S, the “area with substrate ENLDFQS” value was 0.051, the “area with substrate ENLHFQS” value was 0.0532 and the “area with substrate ENLIFQS” value was 0.0586. For the same variant, the “area with substrate ENLKFQS” value was 0.0634 and the “area with substrate ENLMFQS” value was 0.0618.
With P94V the “area with substrate ENLDFQS” value was 0.0585, the “area with substrate ENLHFQS” value was 0.0958 and the “area with substrate ENLIFQS” value was 0.105. The “area with substrate ENLKFQS” value was 0.0937 and the “area with substrate ENLSFQS” value was 0.0716.
In the case of W203D, the “area with substrate ENLDFQS” value is reported as 0.0518, the “area with substrate ENLFFQS” value is reported as 0.101 and the “area with substrate ENLHFQS” value is reported as 0.0591. For the same variant, the “area with substrate ENLRFQS” value was 0.0587 and the “area with substrate ENLWFQS” value was 0.0763.
In the case of L99K, the “area with substrate ENLDFQS” value is reported as 0.055, the “area with substrate ENLNFQS” value is reported as 0.0641 and the “area with substrate ENLRFQS” value is reported as 0.0476.
In the case of L99M, the “area with substrate ENLDFQS” value is reported as 0.0651, the “area with substrate ENLEFQS” value is reported as 0.0634 and the “area with substrate ENLFFQS” value is reported as 0.0993. For the same variant, the “area with substrate ENLHFQS” value was 0.0716, the “area with substrate ENLIFQS” value was 0.0853 and the “area with substrate ENLKFQS” value was 0.0636. For the same variant, the “area with substrate ENLLFQS” value was 0.0726, the “area with substrate ENLMFQS” value was 0.0666 and the “area with substrate ENLPFQS” value was 0.0443. The “area with substrate ENLQFQS” value was 0.0584, the “area with substrate ENLSFQS” value was 0.0601 and the “area with substrate ENLWFQS” value was 0.0775.
With V113Y the “area with substrate ENLDFQS” value was 0.064, the “area with substrate ENLEFQS” value was 0.0619 and the “area with substrate ENLFFQS” value was 0.0857. The “area with substrate ENLGFQS” value was 0.0428, the “area with substrate ENLHFQS” value was 0.0713 and the “area with substrate ENLKFQS” value was 0.0774. For the same variant, the “area with substrate ENLNFQS” value was 0.0754, the “area with substrate ENLPFQS” value was 0.0061 and the “area with substrate ENLRFQS” value was 0.0659. For the same variant, the “area with substrate ENLSFQS” value was 0.0629, the “area with substrate ENLTFQS” value was 0.0912 and the “area with substrate ENLWFQS” value was 0.0738.
